Laboratory results as given in publication PMC6919601, “Identification of Plasmodium dipeptidyl aminopeptidase allosteric inhibitors by high throughput screening” (PLoS ONE, 2019).
The campaign covered roughly 110,000 compounds. About 230 (0.21%) showed an effect of 50% or more. This is one part of the list.

Molecular target: DPAP1 (Plasmodium falciparum, UniProt Q8IIJ9)
Assay: primary screen, percent inhibition; read by cleavage of a fluorogenic dipeptide substrate; higher = more effect of the substance
Set-up: species or system P. falciparum D10 trophozoite lysates; single well
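Note: 30 min substrate incubation versus DMSO and 10 µM JCP410 controls.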

Sequence of DPAP1 (Q8IIJ9 whole entry, looked up): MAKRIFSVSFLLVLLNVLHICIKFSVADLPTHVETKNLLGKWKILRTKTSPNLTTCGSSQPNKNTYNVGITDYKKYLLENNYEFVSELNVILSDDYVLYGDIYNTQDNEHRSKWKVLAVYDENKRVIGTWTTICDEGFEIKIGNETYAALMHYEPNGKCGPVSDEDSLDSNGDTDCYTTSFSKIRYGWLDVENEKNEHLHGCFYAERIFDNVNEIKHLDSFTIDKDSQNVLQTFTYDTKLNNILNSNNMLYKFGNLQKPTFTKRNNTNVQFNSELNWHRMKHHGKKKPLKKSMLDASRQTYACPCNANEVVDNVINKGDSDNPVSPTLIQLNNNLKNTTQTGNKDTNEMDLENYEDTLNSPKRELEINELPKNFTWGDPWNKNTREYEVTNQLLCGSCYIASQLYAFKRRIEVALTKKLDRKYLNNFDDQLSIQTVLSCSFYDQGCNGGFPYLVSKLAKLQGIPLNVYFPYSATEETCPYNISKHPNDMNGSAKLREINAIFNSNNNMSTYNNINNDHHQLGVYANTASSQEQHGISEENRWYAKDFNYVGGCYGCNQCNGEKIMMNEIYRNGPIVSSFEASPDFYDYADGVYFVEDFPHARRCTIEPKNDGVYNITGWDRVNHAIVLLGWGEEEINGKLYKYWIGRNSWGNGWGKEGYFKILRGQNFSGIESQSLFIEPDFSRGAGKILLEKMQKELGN

SMILES | % Inhibition @ 10 uM [%]
Cc1nc2c(-c3ccccc3)c(C)nn2c(C)c1CC(=O)NCCN1CCOCC1 | 0.953
Cc1nc2c(C(=O)NCCN3CCOCC3)cnn2c(C)c1Cc1ccccc1Cl | -0.406
Cn1nnnc1SCCCNCc1ccc(-c2ccccc2)o1 | 5.39
CCC(C)NC(=O)c1cnn2c(C(F)F)cc(-c3ccc(C)cc3)nc12 (centres unmarked) | -6.75
COc1cccc2c1OC1=C(C(=O)CC(C)(C)C1)C2CC(=O)c1ccc(F)cc1 (centres unmarked) | -0.143
COc1ccc(CNC(=O)C2CC(=O)N(C3CCCC3)C2)cc1 (centres unmarked) | 2.18
CCOc1ccccc1NC(=O)c1ccc(-c2ccccc2)cc1 | -4.72
COc1ccc(NS(=O)(=O)c2ccc(Br)cc2)c(OC)c1 | -12.5
O=C(O)c1cccc(N2C(=O)c3cccc([N+](=O)[O-])c3C2=O)c1 | 0.00784
O=C(Nc1ccccc1Oc1ccccc1)c1cnccn1 | 0.163
CCCCNC(=O)Cn1c(SCc2cccc(C)c2)nc2ccncc21 | 5.73
Nc1nnc(SCc2cc(=O)n3ccsc3n2)s1 | -0.495
Oc1nc(S)nc2c1CN(Cc1ccc(F)cc1)CC2 | 2.97
COc1ccc2cc(-c3csc(NC(=O)CCC(=O)NCCN4CCCCC4C)n3)c(=O)oc2c1 (centres unmarked) | 4.49
O=c1ccc2nncn2[nH]1 | -2.83
O=C(c1ccco1)N1CCN(C(=O)C(Cc2ccccc2)N2Cc3ccccc3C2=O)CC1 (centres unmarked) | 3.37
CCOc1ccccc1NC(=O)C1=C(C)NC(=O)NC1c1ccccc1C (centres unmarked) | 0.475
Cc1cc(Br)ccc1OCC(=O)NCC(C)C | 4.75
Cc1[nH]c2ccc(C(=O)NCCCN3CCCC3=O)cc2c1C | -3.2
CCSc1nc(=O)c2c(n1C)NC(=O)CC2c1cccc(F)c1F (centres unmarked) | 2.25
O=S(=O)(c1cccc(S(=O)(=O)N(CCO)CCO)c1)c1ccc(Cl)c(Cl)c1 | 7.47
CC(=O)OCCn1ccc(=O)[nH]c1=O | 1.13
N#CC1=C(N)N(c2ccc(F)cc2)C2=C(C(=O)CCC2)C1c1ccc(Br)s1 (centres unmarked) | 2.67
OCCn1c(-c2ccc(F)cc2)cs/c1=N\c1ccccc1 | 0.431
Cc1cc(C=C2C(=O)c3ccccc3C2=O)c(C)n1-c1ccc(F)cc1 | 3.04
Clc1ccc(-c2cc(-c3cc(-c4ccc(Cl)cc4)[nH]n3)[nH]n2)cc1 | -0.902

SMILES | % Inhibition @ 10 uM [%]
CCN(CC)CCCNC(=O)CCC(=O)N1Cc2ccccc2Oc2ncccc21 | 4.52
COc1cc(C(=O)O)c(CNC(=O)CSc2nnnn2C)c(OC)c1OC | 1.31
CC1(C)OC2c3ccccc3OC3(C)CCC1CC23 (centres unmarked) | -1.8
CCCN1C(=O)S/C(=C\c2ccc(N3CCOCC3)cc2C)C1=O | 9.94
CCC(C)NC(=O)Cn1cnc2scc(-c3ccc(C)cc3)c2c1=O (centres unmarked) | -5.66
CCCc1nnc2sc(NC(=O)c3cccc(C)c3)nn12 | 1.68
CCN(CC)C(=O)c1cc2c(Cl)nc3ccc(C)cc3c2s1 | 3.2
CC(C)C(NC(=O)CSc1ccc(Cl)cc1)C(C)C | -2.21
CCOC(=O)N1CCN(C(=O)/C(=C\c2cccs2)NC(=O)c2ccc(OC)c(OC)c2)CC1 | 0.484
COc1ccc2[nH]c3c(=O)n(CCCCCC(=O)N4CCCC4)c(=S)[nH]c3c2c1 | 10.2
CCOC(=O)c1c(C)nc(C)nc1N | 0.937
C=CCNC(=O)c1ccccc1NC(=O)CN1C(=O)c2ccccc2S1(=O)=O | 4.57
O=CN1CCN(CC2CC=CCC2)CC1 (centres unmarked) | 10.1
CC(C(=O)NCCCc1ccccc1)n1c2ccccc2c2cnnc(O)c21 (centres unmarked) | -3.79
COc1ccc(CCc2nc(C)ccc2O)cc1OC | -6.59
CN(Cc1ccccc1)C(=O)CNS(=O)(=O)c1ccc(F)cc1 | 10.8
CCOC(=O)N1CCC(N2CCN(c3ccc([N+](=O)[O-])cc3)CC2)CC1 | 1.88
Cc1ccc(C2C=C(c3ccc(Br)cc3)Nc3ncnn32)c(C)c1 (centres unmarked) | -1.62
CCN(Cc1ccccc1)C(=O)c1cccs1 | 3.53
COc1ccc(C2Oc3c(OC)cccc3C3CC(c4cccnc4)=NN32)cc1 (centres unmarked) | -1.46
O=C(OCC1OC(n2ccc(=O)[nH]c2=O)C(O)C1O)c1ccccc1 (centres unmarked) | -8.12
COC(=O)/C=C/CSc1nnc(-c2ccc(Cl)cc2Cl)o1 | -0.703
Cc1ccc(C(=O)Nc2nc(-c3ccc(Br)cc3)cs2)o1 | 6.87
Cc1c(C(=O)NCc2ccnn2C)c(-c2ccccc2)nn1-c1ccccc1 | 5.31
CCOC(=O)N1CCN(C(=O)c2cc(-c3ccc(C)c(C)c3)nc3ccccc23)CC1 | 0.955
O=C(CCNc1c(N2CCCC2)c(=O)c1=O)N1CCCCC1 | 1.68

SMILES | % Inhibition @ 10 uM [%]
O=C(CCCc1ccccc1)Nc1ccc(Br)cc1 | 4.15
OC1CCN(Cc2ccc(F)c(Br)c2)CC1 | 0.605
CCCC(=O)Nc1ccc(N2CCOCC2)cc1 | 0.0504
Cc1ccccc1CS(=O)(=O)CCC(=O)NCc1ccc2c(c1)OCO2 | -3.58
COc1ccc(Br)cc1CNC(=O)C1CCCN(S(C)(=O)=O)C1 (centres unmarked) | 0.514
CC(C)C[C@H](NC(=O)c1ccc(Nc2nc(-c3ccncc3)cs2)cc1)C(=O)NCC#N | 7.39
CC(NC1CC(=O)N(c2ccccc2)C1=O)C12CC3CC(CC(C3)C1)C2 (centres unmarked) | -8.46
O=C(c1ccccc1)N1CCN(c2ccccc2)CC1 | -0.856
COc1cccc(-c2cc(C(=O)NC3CCCc4ccccc43)[nH]n2)c1 (centres unmarked) | 0.713
COc1cc(Br)c(/C=C2\Sc3ccccc3C2=O)cc1OC | 4.07
Cc1cc(C)n(-c2cc(Oc3ccccc3C)ncn2)n1 | -1.55
O=C(c1cccnc1)N1CCN(C(=O)c2ccccc2F)CC1 | 2.3
O=C(c1cnn2c(C(F)(F)F)cc(-c3cccs3)nc12)N1CCCC1 | 1.16
CN(C)CCC(=O)N1c2ccccc2Sc2ccccc21 | -2.47
Cc1cc(C)c2c3c(sc2n1)C(c1ccc(F)cc1F)C(C#N)=C(N)O3 (centres unmarked) | 3.62
CC(C)=CC[C@H](NC(=O)OCc1ccccc1)C(=O)NCC#N | -6.46
NC(=O)c1ccccc1NC(=O)Cc1ccc(Br)cc1 | 9.17
COc1ccc(OC)c(-n2c(SCC(=O)NC3CCCC3)nnc2-c2c[nH]c3ccccc23)c1 | -4.97
Cc1ccc(OCCSc2nc3c(N)nc[n+](Cc4ccccc4)c3[nH]2)cc1 | 2.08
Cc1nc2c(ccc3ccsc32)s1 | 1.72
Cc1cc(-c2[nH]nc3c2C(c2ccc(Br)cc2)C(C#N)=C(N)O3)c(C)s1 (centres unmarked) | -2.78
COc1ccc(-c2nc(N)c3c4c(sc3n2)CCCC4)cc1 | -1.07
COCCOC(=O)C1=C(C)NC(=O)NC1c1ccccc1O (centres unmarked) | 1.58
COc1ccc(CN2CCN(C(=O)c3ccc(OC)c(OC)c3)CC2)c(OC)c1 | 1.82
CCOC(=O)c1c(NS(=O)(=O)c2ccc(C3CNC(=O)C3)cc2)sc2c1CCCC2 (centres unmarked) | 3.68
Cc1cc(C)c(S(=O)(=O)NCc2ccncc2)c(C)c1 | 1.74

SMILES | % Inhibition @ 10 uM [%]
COc1ccc(S(=O)(=O)N2CCCC(C)C2)cc1 (centres unmarked) | -4.4
N#C/C(=C\c1ccc([N+](=O)[O-])cc1)c1nc(-c2ccc(-c3ccccc3)cc2)cs1 | 2.13
CCCN(Cc1ccc([N+](=O)[O-])cc1)CC1CC1 | -1.5
CCOC(=O)c1ccccc1NC(=O)c1ccc(C(C)C)cc1 | 2.03
Cn1c(=O)[nH]c(=O)c2c1nc(CN1CCOCC1)n2Cc1ccc(F)cc1 | -4.69
COc1ccc(Br)c2c1-c1nc(NC(=O)c3ccccc3)sc1C2 | 1.62
CCNC(=O)C12CCC(C)(c3nc4cc(C)c(C)cc4nc31)C2(C)C (centres unmarked) | -2.74
Nc1c(-c2nc(-c3ccccc3)cs2)c2ccccn2c1C(=O)c1cccs1 | -0.958
CC(=O)NS(=O)(=O)c1ccc(NC(=O)c2cc(-c3ccc(Cl)cc3)nc3ccccc23)cc1 | 6.61
CN(C)CCCN(CCCN(C)C)Cc1ccc(Cl)c([N+](=O)[O-])c1 | -0.132
COc1ccc(C)cc1N(CC(=O)N1CCCCC1)S(C)(=O)=O | -12.4
NC(=O)C1CCN(Cc2ccc(Br)cc2)CC1 | -0.603
COc1cccc(CNC(=O)CCCn2ccc3cc(S(=O)(=O)N4CCCC4)ccc32)c1 | 2.82
CCS(=O)(=O)c1nc(S(=O)(=O)c2ccc(C)cc2)c(N2CCC(O)CC2)s1 | 1.15
CCO/C(O)=C1\C(CC)=NC2(O)c3ccccc3C(=O)C12O (centres unmarked) | 8.68
CCC1CCCCN1CCCNC(=O)c1cc(-c2cccnc2)nc2ccccc12 (centres unmarked) | -5.92
CCc1ccc(-n2c(SCC(=O)N3CC(C)CC(C)C3)nc3nnc(C)c-3c2N)cc1 (centres unmarked) | 7.3
CSc1nc2ccccc2c(=O)n1-c1ccccc1 | 0.35
O=c1c(-c2ccccc2)c(N2CCC(Cc3ccccc3)CC2)c1=O | 5.89
O=C(NCC1CCCO1)c1cccc(N2C(=O)C3C4c5ccccc5C(c5ccccc54)C3C2=O)c1 (centres unmarked) | 9.96
CCC(NC(=O)CC1CC2CCC1C2)C(=O)c1nc2ccccc2o1 (centres unmarked) | 1.61
CC(C)Oc1ccc(Cc2nnc(S)n2-c2ccccc2)cc1 | 6.91
COc1ccc(-c2noc(CN(C3CCCCC3)S(=O)(=O)c3ccc(C)cc3)n2)cc1 | -1.22
